This note sets out measurements from ChEMBL document CHEMBL5308541, “MAIP: An Open-Source Tool to Enrich High-Throughput Screening Output and Identify Novel, Druglike Molecules with Antimalarial Activity” (ACS Med Chem Lett, 2023).

Among all 150,000 compounds or so, about 540 (0.36%) showed an effect of 50% or more. The list shows a part of the results.

For orientation: % Inhibition means the drop in the measured response relative to a control, in per cent.

The assay deals with Plasmodium falciparum. Kind of assay: Primary screen in NF54 nanoGlo assay, in single point, at 2uM, 72h; a lower Z score goes with more inhibition. The class given is functional, Erythrocyte. The following applies: timepoint 72 hour.
For `O=C(O)c1ccc(Nc2nnc(-c3c[nH]c4ccccc34)o2)cc1`, the “% Inhibition” value is reported as 4% and the Z score is given as -0.54.
The matching figures for `COc1ccnc(N2CCC3C(CCCN3C(=O)CCCC(C)(C)C)C2)n1` (centres undefined): -7% and 1.12.
For `Cc1cc(C)c(C)c(S(=O)(=O)NC2COCC2Cc2ccncc2)c1C` (centres undefined) the same measures were 0% and -0.02.
For `c1cc(CNc2nc(C3CC3)nc3c2CCNCC3)c2cc[nH]c2c1` the same measures were 9% and -1.62.
With `COc1ncc(-c2ccc([C@H](C)N3CCCCC3)cc2)c(OC)n1`, the “% Inhibition” value is -11% and the Z score came out at 1.82.
The matching figures for `COCCN1C[C@@H](CNc2nc(N)nc3c2CCNCC3)CC1=O`: 3% and -0.61.
The matching figures for `O=S(=O)(c1cc(Cl)cc(Cl)c1)N1CCN(c2nccc(-c3ccc(-n4ccnc4)cc3)n2)CC1`: -2% and 0.36.
The matching figures for `c1ccc(N2CCN(CCCNc3cnccn3)CC2)cc1`: 4% and -0.97.
For `Cc1cccc(N2CCC(NC3COCC3Cc3ccncc3)CC2)c1C` (centres undefined), the “% Inhibition” value turned out to be 1% and the Z score is listed as -0.27.
For `Cc1c(N2CCN(CC(F)F)CC2)nc(N(C)C)nc1N1CCN(CC(F)F)CC1` the same measures were -5% and 0.81.
For `CCN1CCC[C@H](CN(C)C2CCN(c3ccc(NC(=O)c4ccc(OC)cc4)cc3)CC2)C1` the same measures were 24% and -4.16.
For `CN1CCC[C@H](c2cc(NCCc3nc(-c4cccnc4)no3)ncn2)C1` the same measures were 1% and -0.26.
As to `Cc1cc(C(F)(F)F)nc(NCC2(CO)CCC2)n1`, the “% Inhibition” value is recorded as 8% and the Z score is on record as -1.8.
The matching figures for `c1cc(CNc2ncnc3[nH]ccc23)ccn1`: -1% and 0.16.
For `C[C@@H](CCNc1ccc2cccc(Cl)c2n1)N1CCN(C)CC1` the same measures were -1% and 0.13.
In the case of `CN(C)C1CCC(NC(=O)N2CCC(c3nccc(-c4cccc(F)c4)n3)CC2)C1` (centres undefined), the “% Inhibition” value is 5% and the Z score was -0.84.
The matching figures for `CN(C[C@H]1CCCN(CCN2CCN(C(=O)OC(C)(C)C)CC2)C1)C(=O)OC(C)(C)C`: -3% and 0.63.
For `CCN1CCN(CCOc2ccc(CN3CCC[C@@]4(CCNC4)C3)cc2)CC1` the same measures were 1% and -0.14.
For `COc1ccc(-c2cc3c(=O)n(Cc4cccc(C#N)c4)ccn3n2)cc1OC` the same measures were 11% and -1.91.
Take `Cc1cc(N[C@@H](C)CCCC(C)(C)O)nc2cc(Cl)ccc12`: the “% Inhibition” value is on record as -8% and the Z score turned out to be 1.4.
For the compound `Cc1ccc2c(c1)OCCN2C(=O)CCOCC(F)(F)C(F)F`, the “% Inhibition” value is reported as -4% and the Z score worked out at 0.77.
Consider `COc1ccc(-c2nc3c([nH]2)CCN(C(=O)c2ccn4nnnc4c2)C3)cc1`, for which the “% Inhibition” value is listed as 2% and the Z score is on record as -0.31.
The matching figures for `CN1CCN(CC2CCN(c3ccnc4ccccc34)CC2)CC1`: 98% and -16.96.
For `COc1ccccc1-c1cc(CNc2nc3ccc(F)cc3n2C)on1` the same measures were -4% and 0.76.
The matching figures for `O=C(Nc1cccc2[nH]ccc12)N1CC2(CC2)c2ccccc21`: -3% and 0.56.
For the compound `CCc1c[nH]c2ncnc(N3CCN(Cc4cccc(O)c4)CC3)c12`, the “% Inhibition” value was -1% and the Z score was determined as 0.18.
For `O=C(NCCn1ccc2ccc(F)cc21)c1ccc(Nc2ncccn2)cc1`, the “% Inhibition” value was -3% and the Z score turned out to be 0.45.
The matching figures for `Cc1[nH]c2ccc(Cl)cc2c1C(=O)N[C@@H](C)CN1CCN(c2ccccn2)CC1`: 7% and -1.26.
The matching figures for `CC(Nc1nc(N)c2ccccc2n1)C(O)Cc1ccccc1` (centres undefined): 1% and -0.29.
For `O=C(c1c[nH]c2ccccc2c1=O)N1CC2(CCCC2)c2ccccc21` the same measures were -6% and 0.91.
Take `Oc1ccccc1CCNC1CCN(CC2CC2)CC1`: the “% Inhibition” value was 10% and the Z score was -1.72.
The matching figures for `Cc1cc(-c2cccc(C(=O)N[C@@H](C)CN3CCCC3)c2)c(Cl)cc1F`: 0% and 0.01.
The matching figures for `OC[C@H]1CN(c2ccncn2)CC12CCN(Cc1c[nH]c3ccccc13)CC2`: -8% and 1.42.
For `CC(=O)N[C@H]1CCN(C(=O)c2cccc(-c3ccc4c[nH]nc4c3)c2)C1` the same measures were -9% and 1.93.
Turning to `Cn1cccc1-c1cc(C(=O)N2CCc3c([nH]c4ccccc34)[C@H]2c2ccccc2F)[nH]n1`, the “% Inhibition” value is reported as -3% and the Z score was found to be 0.48.
For `Cc1ccc(-c2nc(CN3CCC(C(=O)N4CCC(C)(c5noc(-c6cccnc6)n5)CC4)CC3)c(C)o2)cc1` the same measures were 6% and -1.16.
Take `CCN1CCC[C@H](c2nccn2-c2ccc3c[nH]nc3c2)C1`: the “% Inhibition” value is listed as -6% and the Z score is on record as 0.87.
For `Nc1nc2c(c(NC3CCN(Cc4ccccn4)CC3)n1)CCNC2` the same measures were -1% and 0.26.
For `CC1CN(CC2CN(C)CCO2)CCN1Cc1cnc(N)nc1N` (centres undefined) the same measures were 2% and -0.33.
The matching figures for `O=C(c1c(N2CCOCC2)noc1-c1ccccc1)N1CC2CCC(C1)NC2` (centres undefined): -11% and 1.87.
For the compound `COc1ccc(CCN2CCC(CN(C)Cc3nc(-c4cccs4)oc3C)CC2)cc1`, the “% Inhibition” value is -9% and the Z score came to 1.62.
The matching figures for `Fc1cc(-c2ncnc3[nH]ccc23)ccc1OCc1ccccc1`: 9% and -2.03.
For `CC(C)(CNc1ccc(-n2ccnc2)nc1)c1ccccc1` the same measures were -2% and 0.42.
For `CCNc1cc(N[C@H]2CC[C@H](O)CC2)nc(Nc2ccc3c(ccn3Cc3ccccc3)c2)n1` the same measures were 0% and -0.02.
Take `Cc1ccc2oc(NC3CCN(c4cc(C)nc(C)n4)CC3)nc2c1`: the “% Inhibition” value is listed as -6% and the Z score is given as 1.19.
The matching figures for `O=C(c1cnc2c(F)cccc2c1O)N1CCCO[C@@H](CN2CCCC2)C1`: -13% and 1.93.
As for `Cc1c[nH]c(-c2c(-c3ccccc3)ncn2CCCN(CCO)CCO)n1`, the “% Inhibition” value is 3% and the Z score is -0.55.
For `CCc1nc(NCc2nc(-c3ccncc3)no2)c2ccsc2n1` the same measures were -13% and 2.25.
For `Clc1ccc2oc(Nc3ccc4c(c3)Cc3ccccc3-4)nc2c1` the same measures were 3% and -0.57.
For `Cc1c(C(=O)NCC2(N(C)C)CCOCC2)[nH]c2ccc(Cl)cc12` the same measures were -3% and 0.55.
For the compound `Cc1nc(CCNC(=O)C2(c3cccnc3)CCCC2)c(C)o1`, the “% Inhibition” value is recorded as -2% and the Z score is given as 0.41.
Turning to `Nc1noc(CCNc2nccc(Oc3ccc(F)cc3)n2)n1`, the “% Inhibition” value is -10% and the Z score is recorded as 1.98.
`FC(F)(F)c1cc(NCCc2nnc3ccccn23)c2ccccc2n1`: the “% Inhibition” value was -5% and the Z score worked out at 0.8.
For `Cc1cc2n(n1)CCCN(c1cc(-c3ccccc3)nc3cc(C)nn13)C2` the same measures were -3% and 0.64.
Take `CCCCOC(C)C(=O)N1CCCC(c2nc(=O)[nH][nH]2)C1` (centres undefined): the “% Inhibition” value is reported as -11% and the Z score worked out at 2.27.
For `CC1CCCCC1OCCNCc1cnc(N2CCN(C)CC2)nc1` (centres undefined) the same measures were 2% and -0.35.
`C[C@@H](CS(C)(=O)=O)N(C)c1ncnc2cccc(F)c12`: the “% Inhibition” value is recorded as 6% and the Z score was -1.06.
Regarding `CN1CCN(CCOc2ccccc2CN2CCc3[nH]cnc3[C@H]2c2cccnc2)CC1`, the “% Inhibition” value is listed as -2% and the Z score turned out to be 0.41.
For `Nc1ccc2c(NCc3cccc(-c4ccccn4)c3)ncnc2n1` the same measures were -1% and 0.2.
For `CNc1cc(-c2ccc(C(=O)NCCN3CCOCC3)cc2)nc(N)n1` the same measures were -8% and 1.38.
For `CN(CCNC(=O)c1cc2occc2[nH]1)C(=O)c1cc2occc2[nH]1` the same measures were -11% and 1.82.
On to `Cc1nc(Nc2ccc(N3CCNC(=O)C3)nc2)cc(-c2cccnc2)n1`, for which the “% Inhibition” value is -5% and the Z score came out at 1.01.
For `CC(C)(C)OC(=O)N1CCC[C@@H]1CN1CCN(C2CCCC2)CC1` the same measures were -16% and 3.37.
The matching figures for `Cc1ccc(NC(C)(C)C(=O)N2CCC(N3CCC(O)CC3)CC2)cc1`: -3% and 0.57.
For `Cc1cnccc1NCCNCc1nc2ccccc2[nH]1`, the “% Inhibition” value was -2% and the Z score was determined as 0.37.
For `Cc1[nH]c2ccccc2c1CC(=O)N1CCC(Nc2ncccn2)C(O)C1` (centres undefined) the same measures were -3% and 0.43.
The matching figures for `COC1CCOCC1NC(=O)NCC(C)(C)N1CCCCC1` (centres undefined): -4% and 0.85.
The matching figures for `Fc1ccc(Oc2ccnc(CNc3ncnc4[nH]ncc34)c2)cc1`: -12% and 2.44.
As to `CC1CCC(C)N1CCN1CCN(C(=O)NC2CCC3CNCC3C2)CC1` (centres undefined), the “% Inhibition” value is listed as -7% and the Z score was 1.25.
For `O=C(NC(Cc1cccc(F)c1)c1cccc(F)c1)N1CCCC1CCO` (centres undefined) the same measures were 2% and -0.25.
The matching figures for `O=C1CN(C2CCN(CC3CCCCC3)CC2)[C@]2(CCOC2)CN1Cc1ccccc1`: -8% and 1.39.
For `Nc1nc(NCCOc2cccc3cccnc23)cc([C@H]2C[C@@H](O)C2)n1` the same measures were -9% and 1.65.
With `CC(C)CN1CC[C@H](CN(C)C(=O)c2cc(COc3ccc4ncccc4c3)on2)C1`, the “% Inhibition” value is recorded as -10% and the Z score was 1.73.
The matching figures for `Cn1ccnc(N2CCC[C@H](NC3CCN(CC(F)(F)F)CC3)C2)c1=O`: -9% and 1.43.
For `O=C(NCC1CCCN1C1CCCCC1)N1CCN(C2CCNC2)CC1` (centres undefined) the same measures were -12% and 1.8.
For `O=C(Nc1ccc2[nH]ccc2c1)[C@H](Oc1ccc(F)c(F)c1)c1ccccc1` the same measures were -16% and 2.87.
Consider `Cc1ccc(NC(=O)NCCC2CCN(C)CC2)cc1NC(=O)NCCC1CCN(C)CC1`, for which the “% Inhibition” value is listed as -8% and the Z score came to 1.2.
The matching figures for `COC[C@@H](O)CN1CCC(NCc2cccc(-c3ccccn3)c2)CC1`: -2% and 0.26.
With `Cc1ccc(-c2cc(C(=O)N3CCN(c4ncnc5ccccc45)CC3)n[nH]2)cc1`, the “% Inhibition” value was -6% and the Z score is reported as 1.07.
For `Cc1nsc(N[C@H]2CC[C@H](Nc3ccccn3)CC2)c1C#N` the same measures were 2% and -0.48.
The matching figures for `c1ccc(Cc2noc(CCNc3cc(C4CCNCC4)ncn3)n2)cc1`: 2% and -0.32.
The matching figures for `O=C(c1ccc(OCC2CCOCC2)nc1)N1CCN(c2nsc3ccccc23)CC1`: 10% and -1.81.
